# Measured values published in the antibiotic and cytotoxicity screens of Wong et al. (2023).
# The list shows a part of the results.
# Tests used:
# HSkMC = human skeletal muscle cells; test: cytotoxicity call (relative viability < 0.9); details: 10 µM
# HepG2 = test: cytotoxicity call (relative viability < 0.9); details: 10 µM
# S. aureus RN4220 = test: growth inhibition call (relative growth <= 0.2); details: 50 µM
Structure (SMILES),cytotoxicity call (HSkMC),cytotoxicity call (HepG2),growth inhibition call (S. aureus RN4220)
C[C@@H]1CN([C@@H](C)CO)C(=O)c2cc(NC(=O)CCC(F)(F)F)ccc2O[C@@H](C)CCCCO[C@@H]1CN(C)C(=O)C1CCCCC1,inactive,inactive,inactive
N[C@@H]1c2ccccc2C[C@@H]1O,inactive,inactive,inactive
CN1CCN(C(=O)[C@H]2[C@H](CO)[C@H]3Cn4c(cccc4=O)[C@@H]2N3S(=O)(=O)c2ccccc2F)CC1,inactive,inactive,inactive
C[C@H](CO)N1C[C@H](C)[C@H](CN(C)C(=O)c2cnccn2)Oc2ncc(-c3cccc(C#N)c3)cc2C1=O,inactive,inactive,inactive
C[C@H](CO)N1C[C@H](C)[C@@H](CN(C)C(=O)Nc2ccc3c(c2)OCO3)OCCCC[C@H](C)Oc2ccc(NC(=O)c3ccccc3)cc2C1=O,inactive,inactive,inactive
COc1ccc(NC(=O)Nc2ccc3c(c2)C(=O)N([C@@H](C)CO)C[C@H](C)[C@@H](CN(C)S(=O)(=O)c2c(C)noc2C)OCCCC[C@@H](C)O3)cc1,inactive,inactive,inactive
Cl.N=C(N)NC(=N)N1CCOCC1,inactive,inactive,inactive
COc1ccc2c(c1)C(=O)N(CCc1ccc(S(=O)(=O)NC(=O)NC3CCCCC3)cc1)C(=O)C2(C)C,inactive,inactive,inactive
COCCOC(=O)N1C(=O)[C@@]2(c3cc(C#CC4=CCCCC4)ccc31)[C@H](c1ccc(OCCO)cc1)N1[C@H](c3ccccc3)[C@H](c3ccccc3)OC(=O)[C@H]1[C@@H]2C(=O)N1CCc2cc(OC)c(OC)cc2C1,inactive,active,inactive
C[C@@H]1CCCCO[C@@H](CN(C)CC2CCCCC2)[C@@H](C)CN([C@@H](C)CO)C(=O)c2cc(NC(=O)c3ccccc3)ccc2O1,inactive,inactive,inactive
CCCC(=O)C1(c2ccccc2)CCN(C(=O)[C@@H](Cc2ccc(OC)cc2)NC(=O)[C@@H](N)Cc2cncn2C)CC1,inactive,inactive,inactive
C[C@H](CO)N1C[C@H](C)[C@@H](CN(C)C(=O)CCC(F)(F)F)OCCCC[C@H](C)Oc2ccc(NC(=O)Nc3ccccc3)cc2C1=O,inactive,inactive,inactive
C[C@@H]1CN([C@H](C)CO)C(=O)c2cc(NS(=O)(=O)c3cn(C)cn3)ccc2O[C@@H](C)CCCCO[C@@H]1CN(C)S(=O)(=O)c1ccccc1,inactive,inactive,inactive
CC(C)NC(=O)N(C)C[C@@H]1Oc2ccc(NC(=O)CCC(F)(F)F)cc2C(=O)N([C@@H](C)CO)C[C@@H]1C,inactive,inactive,inactive
C[C@@H]1CN([C@@H](C)CO)S(=O)(=O)c2ccc(Br)cc2O[C@@H]1CN(C)S(=O)(=O)c1ccc(F)cc1,inactive,inactive,inactive
C[C@@H]1CN([C@H](C)CO)C(=O)c2cccc(NC(=O)c3ccc(-c4nccs4)cc3)c2O[C@@H]1CN(C)C(=O)Nc1ccc(C(F)(F)F)cc1,active,inactive,inactive
Cc1c(N(C)C)c(=O)n(-c2ccccc2)n1C,inactive,inactive,inactive
NCC1CCC(C(=O)O)CC1 (stereo not given),inactive,inactive,inactive
C[C@H](CO)N1C[C@H](C)[C@H](CN(C)S(=O)(=O)c2ccccc2)Oc2ccc(NC(=O)C3CC3)cc2C1=O,inactive,inactive,inactive
C[C@H](CO)N1C[C@H](C)[C@H](CN(C)S(C)(=O)=O)OCCCC[C@H](C)Oc2ccc(NS(C)(=O)=O)cc2C1=O,inactive,inactive,inactive
COc1ccc(S(=O)(=O)N(C)C[C@@H]2Oc3ccc(NS(=O)(=O)c4c(C)noc4C)cc3CC(=O)N([C@H](C)CO)C[C@@H]2C)cc1,inactive,inactive,inactive
C[C@@H]1CCCCO[C@@H](CN(C)CC2CC2)[C@H](C)CN([C@@H](C)CO)C(=O)c2cc(NC(=O)Nc3ccc4c(c3)OCO4)ccc2O1,inactive,inactive,inactive
COc1ccc(S(=O)(=O)N(C)C[C@H]2Oc3ccc(NS(C)(=O)=O)cc3C(=O)N([C@H](C)CO)C[C@@H]2C)cc1,inactive,inactive,inactive
O=C1OC(CN2CCOCC2)CN1N=Cc1ccc([N+](=O)[O-])o1 (stereo not given),inactive,active,active
c1ccc(-c2nc3ccccc3o2)nc1,inactive,inactive,inactive
C[C@H](CO)N1C[C@H](C)[C@H](CN(C)C(=O)Nc2ccc3c(c2)OCO3)Oc2ccc(NS(=O)(=O)c3cn(C)cn3)cc2C1=O,inactive,inactive,inactive
C[C@@H]1CN([C@@H](C)CO)C(=O)c2cc(NC(=O)CCN3CCOCC3)ccc2O[C@@H]1CN(C)S(=O)(=O)c1ccc(Cl)cc1,inactive,inactive,inactive
COc1ccc(NC(=O)N(C)C[C@@H]2OCCCC[C@@H](C)Oc3ccc(NS(=O)(=O)c4ccccc4)cc3C(=O)N([C@H](C)CO)C[C@H]2C)cc1,inactive,inactive,inactive

Structure (SMILES),cytotoxicity call (HSkMC),cytotoxicity call (HepG2),growth inhibition call (S. aureus RN4220)
COc1ccc([C@H]2CC=CC[C@@H](C)Oc3ccccc3C(=O)N(C)[C@H](Cc3ccccc3)C(=O)N2)c(OC)c1,inactive,inactive,inactive
CCN(CC)CCOCCOC(=O)C(CC)(CC)c1ccccc1.O=C(O)CC(O)(CC(=O)O)C(=O)O,inactive,inactive,inactive
CSc1[nH]c(=O)[nH]c(=O)c1C#N,inactive,inactive,inactive
C[C@@H]1CCCCO[C@H](CN(C)Cc2ccccc2)[C@@H](C)CN([C@H](C)CO)C(=O)c2cc(NS(=O)(=O)c3cccs3)ccc2O1,inactive,inactive,inactive
CN(C)CCCNC(=O)C[C@H]1CC[C@@H]2[C@@H](COc3ccc(NS(C)(=O)=O)cc3C(=O)N2C)O1,inactive,inactive,inactive
CCOC(=O)c1c(CN2CCN(CCOCCO)CC2)n(-c2ccccc2)c2cc(Br)c(O)cc12,inactive,active,inactive
COc1ccc(NC(=O)N(C)C[C@@H]2Oc3ncc(C#C[C@H](C)O)cc3C(=O)N([C@@H](C)CO)C[C@@H]2C)cc1,inactive,inactive,inactive
CCOC(=O)Cc1c(C)[nH]c(SC)nc1=O,inactive,inactive,inactive
COc1ccccc1CNC(=O)C[C@H]1CC[C@H]2[C@@H](COc3ccc(NC(=O)c4ccno4)cc3C(=O)N2C)O1,inactive,inactive,inactive
COC(=O)c1c2oc(c1C(=O)OC)C(=O)N[C@H](Cc1ccccc1)Cn1cc(nn1)[C@H](Cc1ccccc1)NC(=O)N[C@H](COC(=O)NCCCCCC(=O)NO)CC2,inactive,inactive,inactive
C[C@H]1CCCCO[C@H](CN(C)C(=O)c2ccccc2)[C@@H](C)CN([C@@H](C)CO)C(=O)c2cc(NC(=O)Nc3ccc(F)cc3)ccc2O1,inactive,inactive,inactive
O=C(C[C@H]1C=C[C@@H](NC(=O)c2ccncc2)[C@H](CO)O1)NCc1ccncn1,inactive,inactive,inactive
C[C@@H]1CCCCO[C@@H](CN(C)C(=O)c2ccccc2)[C@@H](C)CN([C@H](C)CO)C(=O)c2cc(NS(=O)(=O)c3ccc(Cl)cc3)ccc2O1,inactive,inactive,inactive
CCCCC/C=C\C/C=C\C/C=C\CCCCC(=O)O,inactive,inactive,inactive
C[C@@H]1CN([C@@H](C)CO)C(=O)c2cccc(NC(=O)Nc3ccc4c(c3)OCO4)c2O[C@H]1CN(C)C(=O)Nc1ccc(C(F)(F)F)cc1,inactive,inactive,inactive
CS(=O)(=O)Nc1ccc2c(c1)[C@@H]1C[C@@H](CC(=O)NCC3CC3)O[C@H](CO)[C@@H]1O2,inactive,inactive,inactive
C[C@@H]1CN([C@@H](C)CO)C(=O)c2cc(NC(=O)Nc3ccc(C(F)(F)F)cc3)ccc2O[C@@H]1CN(C)CC1CCCCC1,active,active,inactive
C[C@H]1CN([C@@H](C)CO)C(=O)c2cc(NC(=O)Nc3ccccc3)ccc2O[C@H]1CN(C)CC1CCCCC1,inactive,inactive,inactive
C[C@H]1CN([C@@H](C)CO)C(=O)Cc2cc(NS(C)(=O)=O)ccc2O[C@H]1CN(C)Cc1ccc(C(F)(F)F)cc1,inactive,inactive,inactive
COc1ccc(S(=O)(=O)Nc2ccc3c(c2)C(=O)N([C@@H](C)CO)C[C@@H](C)[C@H](CN(C)Cc2ccc4c(c2)OCO4)OCCCC[C@H](C)O3)cc1,inactive,inactive,inactive
C[C@@H]1CN([C@H](C)CO)C(=O)c2cc(NS(C)(=O)=O)ccc2O[C@@H](C)CCCCO[C@@H]1CN(C)S(C)(=O)=O,inactive,inactive,inactive
C[C@@H]1CN([C@H](C)CO)C(=O)Cc2cc(NC(=O)Nc3ccc(F)cc3)ccc2O[C@@H]1CN(C)Cc1ccc(C(=O)Nc2ccccc2N)cc1,inactive,active,inactive
C[C@H](CO)N1C[C@H](C)[C@H](CN(C)C(=O)Nc2ccc(C(F)(F)F)cc2)Oc2ccc(NC(=O)Cn3cnnn3)cc2C1=O,inactive,inactive,inactive
CC(C)(O)c1coc(S(=O)(=O)NC(=O)Nc2c3c(cc4c2CCC4)CCC3)c1,inactive,inactive,inactive
Cc1noc(C)c1S(=O)(=O)N(C)C[C@@H]1Oc2ccc(NS(=O)(=O)c3ccccc3)cc2CC(=O)N([C@@H](C)CO)C[C@@H]1C,inactive,inactive,inactive
CC(C)NCCCC[C@H](NC(=O)[C@H]1CCC(=O)N[C@@H](Cc2ccccc2)C(=O)N[C@H](Cc2ccc(O)cc2)C(=O)N[C@@H](CCCCNC(C)C)C(=O)N[C@H](CCCN=C(N)N)C(=O)N[C@@H](Cc2ccc3ccccc3c2)C(=O)NCC(=O)N1)C(N)=O,inactive,inactive,inactive
Cc1ccc(S(=O)(=O)N(C)C[C@@H]2Oc3c(NS(=O)(=O)c4ccccc4)cccc3C(=O)N([C@H](C)CO)C[C@H]2C)cc1,inactive,inactive,inactive
